Experimental data published in article PMC10668032.
The other results are listed elsewhere or left out. At the low end of the ranking, values are background and their order means little.

target: SIX1-Q177R homeodomain (UniProt Q15475); assay: universal protein binding microarray; details: Universal all-10-mer PBM (8x60K, AMADID 030236), 300 nM GST-tagged protein, Alexa Fluor 488 anti-GST; buffer, salt, pH and temperature not stated; high values mean tight binding; most listed sequences are background and not binding sites; double strand, one strand shown

Row | Sequence | binding signal
1 | GTGGGCGA | -0.258 E-score
2 | CTGACGAA | -0.25 E-score
3 | CGACGAGA | -0.227 E-score
4 | CATTTCTC | -0.318 E-score
5 | AAGTTACG | -0.0499 E-score
6 | CCCTCGCG | 0.0949 E-score
7 | AACGAGGG | 0.0692 E-score
8 | CCCGTGAG | -0.0425 E-score
9 | ATGCTGTA | -0.399 E-score
10 | ACGAACAG | -0.00445 E-score
11 | AATGCCTC | 0.0127 E-score
12 | ATAACGCC | 0.078 E-score
13 | CAACGGAA | -0.119 E-score
14 | CGAGAACG | -0.137 E-score
15 | CGTCGCGC | -0.173 E-score
16 | AATTAAGA | -0.136 E-score
17 | CCCTTAGG | 0.175 E-score
18 | CGTAGCCA | -0.137 E-score
19 | CTTTTGCC | -0.0536 E-score
20 | GTCCTATA | 0.0431 E-score
21 | ACGGACCG | 0.00022 E-score
22 | TACGTATA | -0.123 E-score
23 | ACCACCGA | 0.0875 E-score
24 | ACTAAGTC | -0.147 E-score
25 | CGGAGCCC | -0.0206 E-score

Row | Sequence | binding signal
26 | ATAACAAA | -0.115 E-score
27 | ATGACCAC | -0.17 E-score
28 | GCTTTTGA | 0.00578 E-score
29 | CCTGCCTC | -0.156 E-score
30 | AGCCTGAC | -0.0305 E-score
31 | CCTATGCC | -0.162 E-score
32 | AGCACTTG | -0.0171 E-score
33 | CCGTAGTC | -0.182 E-score
34 | CCCTTCTC | 0.0869 E-score
35 | AGTACGGA | -0.14 E-score
36 | AAAACGCT | -0.203 E-score
37 | AGGGGGTC | 0.271 E-score
38 | ACTCGAGA | 0.116 E-score
39 | CGCTCCTA | -0.0887 E-score
40 | CTCGCAAG | -0.0141 E-score
41 | CCTACGTC | -0.147 E-score
42 | ACCCTGGA | 0.168 E-score
43 | CCACGATC | -0.143 E-score
44 | ACGCGTGG | -0.000765 E-score
45 | GGATTTTA | -0.0379 E-score
46 | ACTGGGTA | 0.0624 E-score
47 | AACCAGGT | 0.0195 E-score
48 | CCTCCTGA | 0.0991 E-score
49 | ATCTCTGG | -0.0843 E-score
50 | ATGGAGGG | 0.0862 E-score

Row | Sequence | binding signal
51 | TAAACTGA | -0.00412 E-score
52 | CACCAACA | 0.377 E-score
53 | AGGGGTAG | 0.269 E-score
54 | AGACACCT | 0.453 E-score
55 | ATGCTGTG | -0.0586 E-score
56 | GGTATTAC | 0.122 E-score
57 | AAGGTTGG | 0.0234 E-score
58 | AGGGGAGC | -0.0844 E-score
59 | TCAGAAAA | -0.158 E-score
60 | ACGTGTTG | 0.346 E-score
61 | CCCAGTAG | -0.0238 E-score
62 | AGTACAAG | 0.205 E-score
63 | AGGAGGCC | -0.26 E-score
64 | TAAAAACA | -0.0938 E-score
65 | ATGGTCAG | -0.0442 E-score
66 | GAATCTAA | -0.178 E-score
67 | CCCGCCAC | 0.195 E-score
68 | TAACTTGA | 0.0784 E-score
69 | TATACGGA | -0.0563 E-score
70 | CTCACAAA | -0.259 E-score
71 | ATATCAGA | 0.0134 E-score
72 | CGATGACC | -0.0473 E-score
73 | CATCTCTC | -0.0406 E-score
74 | CGCATTAA | -0.0417 E-score
75 | AGCCCCCA | -0.085 E-score

Row | Sequence | binding signal
76 | GTCCCACA | 0.107 E-score
77 | ACCGCCGA | 0.125 E-score
78 | CGCACCAG | 0.17 E-score
79 | AACTTCTA | -0.257 E-score
80 | ATTGGCGG | -0.12 E-score
81 | CATTGTGG | 0.029 E-score
82 | GGGTGGTA | 0.194 E-score
83 | CTAGCTAA | -0.255 E-score
84 | AGTGAAAG | -0.0682 E-score
85 | GGATTCTA | 0.0874 E-score
86 | ATAAGTCG | -0.16 E-score
87 | ACAACGAG | -0.0313 E-score
88 | GGTACCAC | -0.115 E-score
89 | TAAGGCCA | -0.116 E-score
90 | AGGTCGGA | 0.0808 E-score
91 | TCAGTGGA | -0.112 E-score
92 | CCTGTAAA | -0.00159 E-score
93 | GCCCACGA | -0.25 E-score
94 | AGCTAACG | -0.0718 E-score
95 | GGTTTTCA | -0.00496 E-score
96 | AAGTCATC | -0.289 E-score
97 | GCCCACTA | -0.194 E-score
98 | GCAAGCCC | -0.19 E-score
99 | AGATACAC | 0.424 E-score
100 | CCTAGTGA | 0.0144 E-score

Row | Sequence | binding signal
101 | ACCCTGAA | 0.21 E-score
102 | AATCCCCG | 0.0549 E-score
103 | GGAGAACA | 0.0126 E-score
104 | CGCAGTGC | 0.0332 E-score
105 | AGGTAAAA | -0.167 E-score
106 | AGCCTGCG | -0.182 E-score
107 | CCCGGATA | 0.164 E-score
108 | ACCAATCC | -0.0178 E-score
109 | ACGCTGGG | 0.154 E-score
110 | ACCAGAGT | 0.16 E-score
111 | CGATGCGA | -0.0651 E-score
112 | AGAAGGAC | -0.121 E-score
113 | AATGACCC | 0.181 E-score
114 | CCTTTTGC | -0.0587 E-score
115 | GACAAGGA | -0.0636 E-score
116 | CGCTTTCC | -0.269 E-score
117 | GCATTGGC | -0.111 E-score
118 | ACTATCGC | -0.151 E-score
119 | AGCATTGC | -0.206 E-score
120 | CTGTGAGC | 0.0245 E-score
121 | CTCAGCTA | -0.0971 E-score
122 | CAAAATAC | 0.162 E-score
123 | AGACCGTC | -0.0918 E-score
124 | GTCACTTA | -0.0512 E-score
125 | AGTCCTAA | -0.279 E-score

Row | Sequence | binding signal
126 | ACTGATAT | 0.00484 E-score
127 | CGCAACAA | -0.127 E-score
128 | ATCCGAAG | -0.0355 E-score
129 | GCGATTTA | -0.218 E-score
130 | TAGACTAA | -0.253 E-score
131 | ACTCATGC | -0.04 E-score
132 | CTGGCCCA | -0.322 E-score
133 | TATTCCGA | -0.206 E-score
134 | CCATAGCA | 0.139 E-score
135 | AATACGTC | -0.152 E-score
136 | CGACACTA | 0.41 E-score
137 | AATCTCAC | -0.105 E-score
138 | ATCGCATC | 0.0318 E-score
139 | ATAATGCA | -0.0455 E-score
140 | GGTTCGCA | -0.0216 E-score
141 | GACTCACC | -0.11 E-score
142 | AGAAAGGA | -0.102 E-score
143 | CAATTCTC | -0.136 E-score
144 | AACCTTAG | -0.198 E-score
145 | CTTAGGTC | -0.0712 E-score
146 | ATTAAAAG | -0.215 E-score
147 | TAACCGGA | 0.105 E-score
148 | ACTGTGCT | -0.0781 E-score
149 | CTCAGGCA | 0.0139 E-score
150 | AGAGTAAC | 0.163 E-score

Row | Sequence | binding signal
151 | ATGGCAGC | -0.135 E-score
152 | TCTAAAGA | -0.0589 E-score
153 | ACTAGTAC | 0.106 E-score
154 | CACTCTCA | 0.131 E-score
155 | CATGCAAA | -0.15 E-score
156 | CTGGGTGC | 0.0259 E-score
157 | CCTCGAAG | -0.209 E-score
158 | GAATAACC | -0.0265 E-score
159 | CACAGTCA | 0.119 E-score
160 | ACGATTCA | -0.112 E-score
161 | GCTTTCCA | -0.272 E-score
162 | GGTGTGCA | 0.391 E-score
163 | AATCAGCC | -0.229 E-score
164 | ACACCGAA | 0.469 E-score
165 | ATATAAGA | -0.0163 E-score
166 | GCTTGTAA | -0.187 E-score
167 | AGGGCCCT | -0.22 E-score
168 | TACCTTGA | 0.132 E-score
169 | CACTAGCC | 0.177 E-score
170 | AGGGGTGA | 0.13 E-score
171 | AACGATCT | -0.25 E-score
172 | AGGATAGC | -0.0999 E-score
